# In the supplement of paper PMC9938546:
# Structures can show the parent of a compound that is named as a salt. This is one part of the list. Most values come without repeats; read them as rough.
# Tested on: HCT116-GFP
# Assay: HCT116-GFP viability (GFP intensity) relative to untreated control, monoculture; higher = less cancer cell killing
# Conditions: culture: HCT116-GFP monoculture; 10 µM; 72 h
# 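Also: viability estimated indirectly by image-based GFP quantification with live-cell imaging of the constitutively GFP-expressing human colorectal cancer line, no immune cells added.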
row,Structure (SMILES),HCT116-GFP viability
1,NC(=O)NC1NC(=O)NC1=O (stereo not given) [Allantoin],109%
2,O=C1CCc2ccc(OCCCCN3CCN(c4cccc(Cl)c4Cl)CC3)cc2N1 [Aripiprazole],53.9%
3,CN(C)CCOC(c1ccc(Cl)cc1)c1ccccn1 (stereo not given) [Carbinoxamine maleate salt],97.2%
4,Cc1ccccc1C(OCCN(C)C)c1ccccc1 (stereo not given) [Orphenadrine hydrochloride],105%
5,O=C1C(O)=C([C@H]2CC[C@H](c3ccc(Cl)cc3)CC2)C(=O)c2ccccc21 [Atovaquone],74.7%
6,"CC(C)NCC(O)c1ccc(O)c(O)c1 (single isomer, unassigned; (-)) [(-)-Isoproterenol hydrochloride]",71.6%
7,CN1CCOC(c2ccccc2)c2ccccc2C1 (stereo not given) [Nefopam hydrochloride],96.9%
8,CN1CCC(=C2c3ccccc3CCc3sccc32)CC1 [Pizotifen malate],90.9%
9,"CCN(CC)CCOc1ccc(C(=C(Cl)c2ccccc2)c2ccccc2)cc1 [Clomiphene citrate (Z,E)]",19.5%
10,CN(C)[C@@H]1C(O)=C(C(=O)NCNCCCC[C@H](N)C(=O)O)C(=O)[C@@]2(O)C(O)=C3C(=O)c4c(O)cccc4[C@@](C)(O)[C@H]3C[C@@H]12 [Lymecycline],81%
11,CCCCNc1ccc(C(=O)OCCN(C)C)cc1,94.5%
12,COc1ccccc1N1CCN(CCCCNC(=O)c2ccc3ccccc3c2)CC1,87.2%
13,CCC1NC(=O)c2cc(S(N)(=O)=O)c(Cl)cc2N1 (stereo not given) [Quinethazone],93%
14,Cc1cnc(C(=O)NCCc2ccc(S(=O)(=O)NC(=O)NC3CCCCC3)cc2)cn1 [Glipizide],94%
15,O=C1[C@H](CC[C@H](O)c2ccc(F)cc2)[C@@H](c2ccc(O)cc2)N1c1ccc(F)cc1 [Ezetimibe],84.4%
16,CC(C)(C)NC[C@H](O)COc1ccccc1C1CCCC1 [Penbutolol sulfate],69%
17,COc1ccc(C(=O)c2ccccc2O)c(O)c1 [Dioxybenzone],115%
18,Nc1nc2[nH]cc(CCc3ccc(C(=O)N[C@@H](CCC(=O)O)C(=O)O)cc3)c2c(=O)[nH]1 [Pemetrexed disodium],59.1%
19,COc1ccc(CN2CCN(C(c3ccc(F)cc3)c3ccc(F)cc3)CC2)c(OC)c1OC [Lomerizine hydrochloride],25.2%
20,Cc1cnc(C(=O)O)c[n+]1[O-] [Acipimox],105%
21,O=C(OCCOCCO)c1ccccc1Nc1cccc(C(F)(F)F)c1 [Etofenamate],90.2%
22,O=C(O)[C@H]1/C(=C/CO)O[C@@H]2CC(=O)N21 [Clavulanate potassium salt],82.3%
23,C#C[C@]1(O)CC[C@H]2[C@@H]3CCC4=C(CCC(=O)C4)[C@H]3CC[C@@]21C [Norethynodrel],82.7%
24,CC[N+](CC)(CC)CCOc1cccc(OCC[N+](CC)(CC)CC)c1OCC[N+](CC)(CC)CC [Gallamine triethiodide],96.9%
25,CCOC(=O)[N-]c1c[n+](N2CCOCC2)no1 [Molsidomine],91.8%

row,Structure (SMILES),HCT116-GFP viability
1,CC(C)(C)NCC(O)c1cc(O)cc(O)c1 (stereo not given) [Terbutaline hemisulfate],90.5%
2,NS(=O)(=O)c1cc2c(cc1Cl)NC(CC1CCCC1)NS2(=O)=O (stereo not given) [Cyclopenthiazide],107%
3,CN[C@@H]1[C@H](O[C@H]2[C@H](O[C@H]3[C@H](O)[C@@H](O)[C@H](NC(=N)N)[C@@H](O)[C@@H]3NC(=N)N)O[C@@H](C)[C@]2(O)CO)O[C@@H](CO)[C@H](O)[C@H]1O [Dihydrostreptomycin sulfate],92.4%
4,NCc1ccc(S(N)(=O)=O)cc1 [Mafenide hydrochloride],85.9%
5,CCc1oc2ccccc2c1C(=O)c1cc(Br)c(O)c(Br)c1 [Benzbromarone],101%
6,CC/C(=C(\c1ccccc1)c1ccc(OCCN(C)C)cc1)c1ccccc1 [Tamoxifen citrate],82.7%
7,CCCCC[C@H](O)/C=C/[C@H]1[C@H](O)CC(=O)[C@@H]1CCCCCCC(=O)O [Alprostadil],95.5%
8,CCN1CCC[C@H]1CNC(=O)c1c(O)c(Cl)cc(Cl)c1OC [Raclopride],82.7%
9,CCOc1ccc(NC(C)=O)cc1 [Phenacetin],94.1%
10,CN1CCC[C@@H]1CCO[C@](C)(c1ccccc1)c1ccc(Cl)cc1 [Clemastine fumarate],60.5%
11,COc1cc2ncnc(Nc3ccc(F)c(Cl)c3)c2cc1OCCCN1CCOCC1 [Gefitinib],57.5%
12,CC(C(=O)O)c1ccc(C(=O)c2cccs2)cc1 (stereo not given) [Suprofen],113%
13,CN1CCC(OC(c2ccccc2)c2ccccc2)CC1 [Diphenylpyraline hydrochloride],101%
14,O=C(Oc1cccc2cccnc12)c1ccccc1 [Benzoxiquine],44.3%
15,Clc1ccc(Nc2nnc(Cc3ccncc3)c3ccccc23)cc1 [Vatalanib],62.6%
16,Fc1ccc([C@@H]2CCNC[C@H]2COc2ccc3c(c2)OCO3)cc1 [Paroxetine Hydrochloride],62.6%
17,Nc1nc(O)c2ncn(CCC(CO)CO)c2n1 [Penciclovir],107%
18,CN(C/C=C/C#CC(C)(C)C)Cc1cccc2ccccc12 [Terbinafine],64.9%
19,O=c1[nH]cnc2c1ncn2[C@H]1CC[C@@H](CO)O1 [Didanosine],94.1%
20,NCCC[C@H](N)CC(=O)N[C@H]1CNC(=O)[C@H]([C@H]2C[C@H](O)NC(N)=N2)NC(=O)/C(=C/NC(N)=O)NC(=O)[C@H](CO)NC(=O)[C@H](CO)NC1=O [Viomycin sulfate],15.7%
21,NC(CO)C(=O)NNCc1ccc(O)c(O)c1O (stereo not given) [Benserazide hydrochloride],45.7%
22,CN(C)CCCN1c2ccccc2CCc2ccccc21 [Imipramine hydrochloride],92.1%
23,O=C1c2cccc3c2[C@H](CCC3)CN1[C@@H]1CN2CCC1CC2 [Palonosetron hydrochloride],85%
24,NCC[C@H](O)C(=O)N[C@@H]1C[C@H](N)[C@@H](O[C@H]2O[C@H](CN)[C@@H](O)[C@H](O)[C@H]2O)[C@H](O)[C@H]1O[C@H]1O[C@H](CO)[C@@H](O)[C@H](N)[C@H]1O [Amikacin hydrate],93.8%
25,CC(C)CN(C[C@@H](O)[C@H](Cc1ccccc1)NC(=O)O[C@H]1CO[C@H]2OCC[C@H]21)S(=O)(=O)c1ccc(N)cc1 [Darunavir],101%

row,Structure (SMILES),HCT116-GFP viability
1,OCCN1C[C@H](O)[C@@H](O)[C@H](O)[C@H]1CO [Miglitol],107%
2,CC(C)C(=O)Nc1ccc([N+](=O)[O-])c(C(F)(F)F)c1 [Flutamide],88.3%
3,Cn1cnc([N+](=O)[O-])c1Sc1ncnc2[nH]cnc12 [Azathioprine],53.2%
4,"C[C@@]1(O)CCOC(=O)C1 [Mevalonic-D, L acid lactone]",88.3%
5,COCC(=O)Nc1c(I)c(C(=O)NCC(O)CO)c(I)c(C(=O)N(C)CC(O)CO)c1I (stereo not given) [Iopromide],95.8%
6,O=C(O)CCCC[C@@H]1SC[C@@H]2NC(=O)N[C@@H]21 [Biotin],98.5%
7,CC1COc2c(N3CCN(C)CC3)c(F)cc3c(=O)c(C(=O)O)cn1c23 (stereo not given) [Ofloxacin],109%
8,CC(=O)SCC(Cc1ccccc1)C(=O)NCC(=O)OCc1ccccc1 (stereo not given) [Racecadotril],101%
9,C[C@H](CCC(=O)O)[C@H]1CC[C@H]2[C@@H]3CC[C@@H]4C[C@H](O)CC[C@]4(C)[C@H]3CC[C@]12C [Lithocholic acid],105%
10,COC(=O)C1=C(C)NC(C)=C(C(=O)OC(C)C)C1c1cccc2nonc12 (stereo not given) [Isradipine],87.8%
11,"CC(C)NCC(O)c1cc(O)cc(O)c1 (stereo not given) [Metaproterenol sulfate, orciprenaline sulfate]",100%
12,O=C(O)CN(CCN(CC(=O)O)CC(=O)O)CCN(CC(=O)O)CC(=O)O [Pentetic acid],103%
13,C#CCN(C)CCCOc1ccc(Cl)cc1Cl [Clorgyline hydrochloride],93.2%
14,Cn1c(=O)c2c(ncn2CCO)n(C)c1=O [Etofylline],96.6%
15,COc1ccccc1N1CCN(CCCNc2cc(=O)n(C)c(=O)n2C)CC1 [Urapidil hydrochloride],99.1%
16,COc1nc(N)nc2c1ncn2[C@@H]1O[C@H](CO)[C@@H](O)[C@@H]1O [Nelarabine],103%
17,CCC(=O)OCC(=O)[C@@]1(OC(=O)CC)[C@@H](C)C[C@H]2[C@@H]3CCC4=CC(=O)C=C[C@]4(C)[C@@]3(Cl)[C@@H](O)C[C@@]21C [Beclomethasone dipropionate],91.9%
18,CCN(CC)Cc1cc(Nc2ccnc3cc(Cl)ccc23)ccc1O [Amodiaquin dihydrochloride dihydrate],47.3%
19,CC(=O)OCC1=C(C(=O)O)N2C(=O)[C@@H](NC(=O)Cc3cccs3)[C@H]2SC1 [Cephalothin sodium salt],107%
20,Clc1ccc(C(Cn2ccnc2)OCc2csc3c(Cl)cccc23)c(Cl)c1 (stereo not given) [Sertaconazole nitrate],46.4%
21,CCN(CC)CCNC(=O)COc1ccc(OC)cc1 [Mefexamide hydrochloride],101%
22,CC1(C)S[C@@H]2[C@H](NC(=O)Cc3ccccc3)C(=O)N2[C@H]1C(=O)O [Benzathine benzylpenicillin],99.2%
23,CC1(C)S[C@@H]2[C@H](NC(=O)Cc3ccccc3)C(=O)N2[C@H]1C(=O)O [Benzylpenicillin sodium],110%
24,CCCCc1nc(Cl)c(CO)n1Cc1ccc(-c2ccccc2-c2nnn[nH]2)cc1 [Losartan],102%
25,O=C1NCCN1CCN1CCC(c2cn(-c3ccc(F)cc3)c3ccc(Cl)cc23)CC1 [Sertindole],7.4%
